Test results published in article PMC11304329.
Results are given in words; binding and its absence hold for the method and conditions named. Binding seen in cells or lysates may run through a third protein. Some results given as binding are weak or reduced against the parent protein; the word gives no strength.

Chains of the proteins cited; added tags and fusions are not shown.
UniProt Q92769: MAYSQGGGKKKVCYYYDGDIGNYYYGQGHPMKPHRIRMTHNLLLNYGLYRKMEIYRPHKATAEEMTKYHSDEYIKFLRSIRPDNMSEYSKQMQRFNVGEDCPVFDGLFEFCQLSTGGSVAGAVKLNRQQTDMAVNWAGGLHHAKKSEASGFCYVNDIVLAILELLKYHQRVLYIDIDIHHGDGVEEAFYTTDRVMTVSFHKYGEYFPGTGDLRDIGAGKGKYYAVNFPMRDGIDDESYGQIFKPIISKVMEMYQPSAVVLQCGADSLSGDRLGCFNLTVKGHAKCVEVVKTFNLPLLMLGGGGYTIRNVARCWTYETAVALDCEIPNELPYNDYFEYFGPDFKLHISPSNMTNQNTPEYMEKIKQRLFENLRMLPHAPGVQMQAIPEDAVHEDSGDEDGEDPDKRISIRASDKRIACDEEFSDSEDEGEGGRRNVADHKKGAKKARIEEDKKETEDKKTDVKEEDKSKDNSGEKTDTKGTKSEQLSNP
UniProt Q13547: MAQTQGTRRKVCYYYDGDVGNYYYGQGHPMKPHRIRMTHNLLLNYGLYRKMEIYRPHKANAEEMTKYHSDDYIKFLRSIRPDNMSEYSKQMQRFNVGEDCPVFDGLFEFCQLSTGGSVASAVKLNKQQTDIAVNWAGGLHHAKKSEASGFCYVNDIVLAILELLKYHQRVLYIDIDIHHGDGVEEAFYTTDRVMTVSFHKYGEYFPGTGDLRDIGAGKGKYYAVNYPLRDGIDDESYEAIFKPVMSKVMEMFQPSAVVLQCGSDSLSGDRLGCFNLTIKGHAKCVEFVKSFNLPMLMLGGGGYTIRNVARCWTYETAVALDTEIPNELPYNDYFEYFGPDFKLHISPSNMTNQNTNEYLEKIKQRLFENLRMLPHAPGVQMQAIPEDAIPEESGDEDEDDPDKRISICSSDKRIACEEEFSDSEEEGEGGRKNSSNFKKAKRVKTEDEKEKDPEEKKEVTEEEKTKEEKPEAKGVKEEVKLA
UniProt O15379: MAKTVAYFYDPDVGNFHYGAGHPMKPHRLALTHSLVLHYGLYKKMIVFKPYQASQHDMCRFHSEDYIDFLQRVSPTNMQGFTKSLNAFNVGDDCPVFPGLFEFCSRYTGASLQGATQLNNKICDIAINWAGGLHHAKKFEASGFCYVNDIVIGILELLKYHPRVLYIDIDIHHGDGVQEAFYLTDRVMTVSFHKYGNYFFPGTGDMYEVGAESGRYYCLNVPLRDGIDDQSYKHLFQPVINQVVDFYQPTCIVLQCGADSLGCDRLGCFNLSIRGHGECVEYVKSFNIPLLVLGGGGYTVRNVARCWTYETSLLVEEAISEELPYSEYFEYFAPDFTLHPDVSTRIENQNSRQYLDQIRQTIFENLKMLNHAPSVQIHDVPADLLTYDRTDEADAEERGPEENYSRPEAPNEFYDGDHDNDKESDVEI
UniProt Q15788: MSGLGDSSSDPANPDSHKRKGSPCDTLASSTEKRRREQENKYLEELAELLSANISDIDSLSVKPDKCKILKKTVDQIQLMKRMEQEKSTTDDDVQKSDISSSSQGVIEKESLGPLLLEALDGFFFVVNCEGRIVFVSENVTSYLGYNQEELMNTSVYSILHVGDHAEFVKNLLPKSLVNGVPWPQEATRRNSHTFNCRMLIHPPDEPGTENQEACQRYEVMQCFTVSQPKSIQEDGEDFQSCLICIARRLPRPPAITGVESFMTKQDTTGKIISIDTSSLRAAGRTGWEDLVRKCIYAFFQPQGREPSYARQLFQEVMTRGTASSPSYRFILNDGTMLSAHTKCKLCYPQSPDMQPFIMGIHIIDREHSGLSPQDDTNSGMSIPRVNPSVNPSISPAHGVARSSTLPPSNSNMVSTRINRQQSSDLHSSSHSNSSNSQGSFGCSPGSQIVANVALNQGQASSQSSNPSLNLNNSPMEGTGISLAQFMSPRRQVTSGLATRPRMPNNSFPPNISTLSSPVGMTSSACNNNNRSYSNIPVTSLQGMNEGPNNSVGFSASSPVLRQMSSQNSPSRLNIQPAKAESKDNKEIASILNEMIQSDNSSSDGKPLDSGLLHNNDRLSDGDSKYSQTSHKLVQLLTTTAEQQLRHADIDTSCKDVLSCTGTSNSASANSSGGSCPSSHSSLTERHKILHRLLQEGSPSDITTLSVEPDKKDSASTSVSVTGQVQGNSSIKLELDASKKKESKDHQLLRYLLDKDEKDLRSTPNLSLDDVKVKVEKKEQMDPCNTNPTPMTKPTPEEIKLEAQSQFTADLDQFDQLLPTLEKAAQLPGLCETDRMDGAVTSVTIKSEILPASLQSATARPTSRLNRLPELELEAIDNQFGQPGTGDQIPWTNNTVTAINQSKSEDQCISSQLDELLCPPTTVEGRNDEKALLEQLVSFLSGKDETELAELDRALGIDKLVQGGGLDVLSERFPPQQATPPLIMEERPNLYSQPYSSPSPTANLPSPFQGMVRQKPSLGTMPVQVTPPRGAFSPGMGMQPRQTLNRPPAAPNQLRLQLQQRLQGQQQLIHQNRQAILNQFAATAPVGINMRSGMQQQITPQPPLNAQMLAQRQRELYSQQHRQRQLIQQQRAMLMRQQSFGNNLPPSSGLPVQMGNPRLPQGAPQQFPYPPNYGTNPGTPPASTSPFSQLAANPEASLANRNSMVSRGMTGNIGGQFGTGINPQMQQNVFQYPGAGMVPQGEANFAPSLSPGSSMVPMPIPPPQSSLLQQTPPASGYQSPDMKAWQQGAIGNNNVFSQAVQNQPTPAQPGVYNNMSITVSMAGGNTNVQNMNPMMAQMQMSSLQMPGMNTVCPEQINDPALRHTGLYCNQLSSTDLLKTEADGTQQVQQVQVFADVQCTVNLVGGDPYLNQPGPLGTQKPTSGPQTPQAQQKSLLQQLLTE
UniProt Q9Y6Q9: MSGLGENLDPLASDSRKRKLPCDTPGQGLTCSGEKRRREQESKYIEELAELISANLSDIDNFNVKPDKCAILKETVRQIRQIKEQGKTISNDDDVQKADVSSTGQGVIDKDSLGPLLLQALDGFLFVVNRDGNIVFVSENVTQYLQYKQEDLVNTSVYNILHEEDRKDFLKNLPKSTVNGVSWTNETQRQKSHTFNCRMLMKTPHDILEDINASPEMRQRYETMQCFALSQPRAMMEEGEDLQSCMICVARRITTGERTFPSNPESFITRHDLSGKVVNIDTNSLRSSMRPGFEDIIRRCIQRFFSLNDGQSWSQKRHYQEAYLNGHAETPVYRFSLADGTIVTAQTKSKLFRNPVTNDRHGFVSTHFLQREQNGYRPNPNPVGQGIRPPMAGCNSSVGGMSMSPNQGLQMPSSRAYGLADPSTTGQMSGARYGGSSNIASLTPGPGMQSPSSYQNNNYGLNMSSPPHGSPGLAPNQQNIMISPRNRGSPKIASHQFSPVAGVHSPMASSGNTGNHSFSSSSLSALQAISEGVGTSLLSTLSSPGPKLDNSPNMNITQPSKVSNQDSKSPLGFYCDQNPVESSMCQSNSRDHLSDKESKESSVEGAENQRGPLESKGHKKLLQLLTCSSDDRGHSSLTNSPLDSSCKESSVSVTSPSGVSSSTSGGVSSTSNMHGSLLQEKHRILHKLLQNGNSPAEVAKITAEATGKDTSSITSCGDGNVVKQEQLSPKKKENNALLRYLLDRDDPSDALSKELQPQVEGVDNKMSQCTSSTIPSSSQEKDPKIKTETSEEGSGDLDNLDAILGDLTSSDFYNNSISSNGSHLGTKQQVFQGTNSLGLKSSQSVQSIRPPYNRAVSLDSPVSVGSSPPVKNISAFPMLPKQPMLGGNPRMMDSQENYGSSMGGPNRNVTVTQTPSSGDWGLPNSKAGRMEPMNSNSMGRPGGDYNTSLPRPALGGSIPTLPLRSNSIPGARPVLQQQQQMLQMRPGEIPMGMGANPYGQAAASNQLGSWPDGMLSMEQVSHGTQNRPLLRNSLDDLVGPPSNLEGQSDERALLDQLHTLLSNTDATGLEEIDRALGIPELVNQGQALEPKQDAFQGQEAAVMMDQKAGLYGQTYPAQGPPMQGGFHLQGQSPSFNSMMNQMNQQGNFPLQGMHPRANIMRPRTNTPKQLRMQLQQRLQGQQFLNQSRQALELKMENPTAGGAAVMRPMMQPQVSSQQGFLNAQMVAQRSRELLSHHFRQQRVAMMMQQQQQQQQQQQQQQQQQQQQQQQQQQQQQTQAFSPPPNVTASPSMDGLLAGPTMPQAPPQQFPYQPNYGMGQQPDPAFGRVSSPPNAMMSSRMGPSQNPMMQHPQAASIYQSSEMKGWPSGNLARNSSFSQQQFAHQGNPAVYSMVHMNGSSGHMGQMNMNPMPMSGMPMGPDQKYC
UniProt Q15596: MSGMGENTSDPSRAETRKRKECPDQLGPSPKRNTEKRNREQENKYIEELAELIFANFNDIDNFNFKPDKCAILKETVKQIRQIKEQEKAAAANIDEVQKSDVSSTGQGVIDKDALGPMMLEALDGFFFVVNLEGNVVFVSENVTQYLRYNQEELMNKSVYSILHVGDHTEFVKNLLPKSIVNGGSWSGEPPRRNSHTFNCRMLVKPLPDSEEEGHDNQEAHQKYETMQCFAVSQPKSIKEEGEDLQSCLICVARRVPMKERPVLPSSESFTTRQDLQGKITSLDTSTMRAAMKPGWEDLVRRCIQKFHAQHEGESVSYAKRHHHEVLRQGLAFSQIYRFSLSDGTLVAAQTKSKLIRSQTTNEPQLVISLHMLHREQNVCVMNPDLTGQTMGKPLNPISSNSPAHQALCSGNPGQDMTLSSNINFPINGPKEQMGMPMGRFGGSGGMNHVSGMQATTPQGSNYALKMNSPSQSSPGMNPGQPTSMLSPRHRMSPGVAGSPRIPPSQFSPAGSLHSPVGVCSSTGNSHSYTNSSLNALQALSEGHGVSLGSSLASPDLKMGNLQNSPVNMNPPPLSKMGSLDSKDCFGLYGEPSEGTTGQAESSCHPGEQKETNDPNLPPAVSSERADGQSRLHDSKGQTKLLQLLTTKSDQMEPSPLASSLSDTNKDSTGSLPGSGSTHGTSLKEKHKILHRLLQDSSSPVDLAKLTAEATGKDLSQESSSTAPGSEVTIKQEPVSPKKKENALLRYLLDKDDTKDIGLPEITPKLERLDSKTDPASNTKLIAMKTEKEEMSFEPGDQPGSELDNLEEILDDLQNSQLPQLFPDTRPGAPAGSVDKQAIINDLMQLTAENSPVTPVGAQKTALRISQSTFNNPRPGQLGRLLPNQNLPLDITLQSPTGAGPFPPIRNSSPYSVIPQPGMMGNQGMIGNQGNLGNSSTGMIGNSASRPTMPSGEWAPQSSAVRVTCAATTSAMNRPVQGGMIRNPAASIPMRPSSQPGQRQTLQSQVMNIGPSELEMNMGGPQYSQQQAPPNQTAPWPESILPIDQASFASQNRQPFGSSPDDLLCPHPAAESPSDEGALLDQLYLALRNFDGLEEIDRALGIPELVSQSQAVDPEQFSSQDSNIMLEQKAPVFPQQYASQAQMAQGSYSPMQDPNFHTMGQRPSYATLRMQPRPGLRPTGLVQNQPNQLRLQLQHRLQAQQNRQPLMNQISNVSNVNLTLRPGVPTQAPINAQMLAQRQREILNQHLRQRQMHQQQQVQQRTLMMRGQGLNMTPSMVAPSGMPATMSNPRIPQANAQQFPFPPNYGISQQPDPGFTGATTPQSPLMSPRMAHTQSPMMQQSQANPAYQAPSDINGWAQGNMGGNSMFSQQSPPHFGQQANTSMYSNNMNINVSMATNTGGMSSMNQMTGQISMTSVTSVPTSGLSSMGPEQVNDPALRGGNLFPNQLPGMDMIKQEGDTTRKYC

T1: HsANKRD11 truncation T6 (aa 1160-1470) (human) (UniProt Q6UB99)
T1 sequence: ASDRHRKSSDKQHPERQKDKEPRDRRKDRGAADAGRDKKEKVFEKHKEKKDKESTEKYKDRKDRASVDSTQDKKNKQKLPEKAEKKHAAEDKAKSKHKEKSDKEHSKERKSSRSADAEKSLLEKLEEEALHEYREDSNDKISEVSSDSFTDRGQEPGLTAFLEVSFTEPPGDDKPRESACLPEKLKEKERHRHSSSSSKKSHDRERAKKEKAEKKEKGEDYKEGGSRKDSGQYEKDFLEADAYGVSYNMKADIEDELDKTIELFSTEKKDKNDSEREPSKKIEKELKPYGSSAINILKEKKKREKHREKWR

T2: Hs65K (human) (UniProt Q96LT9)
T2 sequence: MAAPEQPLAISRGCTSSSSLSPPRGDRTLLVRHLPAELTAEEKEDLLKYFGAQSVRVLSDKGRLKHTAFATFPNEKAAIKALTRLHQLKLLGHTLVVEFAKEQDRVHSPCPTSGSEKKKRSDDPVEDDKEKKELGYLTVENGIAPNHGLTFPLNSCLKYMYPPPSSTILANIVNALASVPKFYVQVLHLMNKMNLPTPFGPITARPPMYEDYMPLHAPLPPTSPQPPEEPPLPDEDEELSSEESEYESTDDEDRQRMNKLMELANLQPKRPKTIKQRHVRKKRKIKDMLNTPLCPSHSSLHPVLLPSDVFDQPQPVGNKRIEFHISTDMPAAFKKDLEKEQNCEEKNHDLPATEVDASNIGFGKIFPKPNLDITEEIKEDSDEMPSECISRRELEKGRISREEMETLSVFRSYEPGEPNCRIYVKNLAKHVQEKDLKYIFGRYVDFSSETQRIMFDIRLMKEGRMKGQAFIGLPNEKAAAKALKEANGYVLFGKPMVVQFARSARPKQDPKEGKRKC

B1: Hs65K (protein, UniProt Q96LT9 1-517)
chain: T2 sequence

Experiments:
[1] = target: T1, HsANKRD11 truncation T6 (aa 1160-1470) (human); assay: co-IP; V5-tagged HsANKRD11 truncations T1-T6 transfected into 293T cells and precipitated; blots for HDAC3 and Hs65K; T6 and T2 also after knock-down of HDAC3
Hs65K (human) = target: T2, Hs65K (human); assay: co-IP; 293T cell lysate, 65K antibody (Proteintech 25820-1-AP) pre-conjugated to protein A-G magnetic beads; western blot
[2] = target: HDAC2 (human (endogenous in 293T)) (UniProt Q92769); assay: co-IP; 293T cells, precipitation with antibodies against HDAC1, HDAC2 or HDAC3, blot for Hs65K; also after shRNA knock-down of HsANKRD11 (fewer Hs65K)
[3] = target: HDAC1 (human (endogenous in 293T)) (UniProt Q13547); assay: as above

Row | Molecule | binding [1] | binding (Hs65K (human)) | further results
1 | HDAC3 (from UniProt O15379 1-428) (enzyme) | no binding |  | 
2 | SRC1 (from UniProt Q15788 1-1441) |  | no binding | 
3 | NOCR1 (from UniProt O75376 1-2440) |  | binds | 
4 | RAC3 (from UniProt Q9Y6Q9 1-1424) |  | no binding | 
5 | TIF2 (from UniProt Q15596 1-1464) |  | no binding | 
6 | B1 | binds |  | binding [2]: no binding; binding [3]: no binding
